Test [1] concerns the target biotinylated bovine serum albumin (BSA) (bovine, UniProt P02769, biotinylated with EZ-link sulfo-NHS-SS-biotin). Description: ELISA: biotinylated BSA (100 nM) on streptavidin-coated wells, purified Fyn SH3-derived polypeptide at 200 nM, detection by anti-myc 9E10 and anti-mouse IgG HRP.
Test [2] addresses T1, human chymase (EC 3.4.21.39) having SEQ ID NO: 16 (human, UniProt P23946 22-247, biotinylated with EZ-link sulfo-NHS-SS-biotin, 3 biotin molecules per chymase molecule (ELISA and SPR)).
T1 construct: Produced as described in Perspicace et al. 2009; It was biotinylated for ELISA and SPR; also called biotinylated chymase
T1 sequence: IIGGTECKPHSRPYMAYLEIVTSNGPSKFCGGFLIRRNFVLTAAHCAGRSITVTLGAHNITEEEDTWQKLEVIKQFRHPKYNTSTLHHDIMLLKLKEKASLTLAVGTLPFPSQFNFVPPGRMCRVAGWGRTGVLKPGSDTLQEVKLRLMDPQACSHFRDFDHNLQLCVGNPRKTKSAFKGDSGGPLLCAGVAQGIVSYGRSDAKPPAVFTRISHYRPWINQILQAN
Description: monoclonal ELISA, bacterial lysate supernatant on biotinylated chymase. For orientation: ELISA stands for enzyme-linked immunosorbent assay.

In test [3] the target is T1, human chymase (EC 3.4.21.39) having SEQ …. Description: SPR, BIAcore 3000, biotinylated chymase on SA chip, monomeric polypeptide injected.
For test [4] the target is unchanged. Description: cell-based or functional assay.

Positions count from the first letter of the chain named.

The term Kd denotes the concentration at which binding is half-saturated. Low values mean tighter binding, high ones weaker binding. As usually defined, the koff is the rate constant with which the complex falls apart. A higher koff goes with fast dissociation.

UniProt P02769, sequence (P02769 25-607 limits assumed): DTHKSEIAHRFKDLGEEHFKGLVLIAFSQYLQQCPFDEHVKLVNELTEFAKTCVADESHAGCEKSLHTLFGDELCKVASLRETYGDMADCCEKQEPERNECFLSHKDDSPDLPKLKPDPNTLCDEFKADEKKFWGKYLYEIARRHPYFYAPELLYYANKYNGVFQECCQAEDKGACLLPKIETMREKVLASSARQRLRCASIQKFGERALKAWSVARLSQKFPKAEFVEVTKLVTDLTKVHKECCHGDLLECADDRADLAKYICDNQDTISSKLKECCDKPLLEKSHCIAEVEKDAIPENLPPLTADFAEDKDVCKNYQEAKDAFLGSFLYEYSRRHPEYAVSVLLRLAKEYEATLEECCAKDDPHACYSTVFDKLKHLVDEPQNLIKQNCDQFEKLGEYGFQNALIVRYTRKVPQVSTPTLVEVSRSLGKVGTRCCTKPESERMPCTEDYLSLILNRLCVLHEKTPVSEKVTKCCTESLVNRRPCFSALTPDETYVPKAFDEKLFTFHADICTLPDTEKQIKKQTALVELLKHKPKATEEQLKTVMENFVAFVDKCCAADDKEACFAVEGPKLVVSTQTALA

B1: Fyn SH3-derived polypeptide H2 (SEQ ID NO: 8) (designed binder)
chain: GVTLFVALYDYQADRWTDLSFHKGEKFQILRFDIGDWWEARSLTTGETGYIPSNYVAPVDSIQ
notes: Monomeric by SEC; not shown: C-terminal myc and hexa his tag from vector pQE-12
With B1, in test [1], the binding result is on record as “no binding (tested: 200 nM)”.

B2: Fyn SH3-derived polypeptide E5 (SEQ ID NO: 13) (designed binder)
chain: B1 chain with Q12K, D14Q, T17L, K23E, R31S, F32T, I34S
notes: not shown: C-terminal myc and hexa his tag from vector pQE-12
For the molecule B2, the binding result in test [2] is on record as “binds”.

B3: Fyn SH3-derived polypeptide B5 (SEQ ID NO: 3) (designed binder)
chain: B1 chain with Q12N, D14T, R31D, F32G, I34S
notes: Monomeric by SEC; also called Fynomer; not shown: C-terminal myc and hexa his tag from vector pQE-12
Regarding B3, the binding result in test [1] was “no binding (tested: 200 nM)”.

B4: Fyn SH3-derived polypeptide E4 (SEQ ID NO: 2) (designed binder)
chain: B1 chain with Q12N, D14T, R31E, D33G, I34P
notes: as for B3
For B4, in test [3], the Kd came to 0.9 nM and the koff is 0.00066 s⁻¹. In addition, the “IC50 values for inhibition of chymase activity” value in test [4] was 2 nM. Further, the binding result in test [1] is recorded as “no binding (tested: 200 nM)”.

B5: Fyn SH3-derived polypeptide D7 (SEQ ID NO: 7) (designed binder)
chain: B1 chain with R31S, D33H, I34V
notes: as for B1
For B5, the binding result in test [1] is “no binding (tested: 200 nM)”.

B6: Fyn SH3-derived polypeptide A4 (SEQ ID NO: 4) (designed binder)
chain: GVTLFVALYDYQADRWTDLSFHKGEKFQILDASPPGDWWEARSLTTGETGYIPSNYVAPVDSIQ
notes: as for B3
As for B6, the binding result in test [1] is reported as “no binding (tested: 200 nM)”.

B7: Fyn SH3-derived polypeptide E3 (SEQ ID NO: 9) (designed binder)
chain: B6 chain with D31N, P34G
notes: as for B1
For B7, in test [1], the binding result is reported as “no binding (tested: 200 nM)”.

B8: Fyn SH3-derived polypeptide H11 (SEQ ID NO: 11) (designed binder)
chain: GVTLFVALYDYKAQRWTDLSFHKGEKFQILQAHQKTGDWWEARSLTTGETGLIPSNYVAPVDSIQ
notes: as for B2
Turning to B8, in test [2], the binding result is recorded as “binds”.

B9: Fyn SH3-derived polypeptide F12 (SEQ ID NO: 5) (designed binder)
chain: GVTLFVALYDYRAERSTDLSFHKGEKFQILDMTVPNGDWWEARSLTTGETGYIPSNYVAPVDSIQ
notes: as for B1
As for B9, the binding result in test [1] was “no binding (tested: 200 nM)”.

B10: Fyn SH3-derived polypeptide G2.3 (SEQ ID NO: 6) (designed binder)
chain: B9 chain with R12N, E14T, S16W, M32W, V34T, P35A
notes: as for B1
As for B10, in test [1], the binding result was “no binding (tested: 200 nM)”.
